# Source: PubChem BioAssay AID1347073 (National Center for Advancing Translational Sciences (NCATS), 2019)
# In all, about 45,000 compounds went through this assay and about 200 (0.44%) were called active. About 7% were inconclusive and are not listed. The call rests on the fitted dose curve; in most records, active means well fitted activation curve with a large enough effect; inconclusive means small, poorly fitted or top-dose-only effect; inactive means no such curve, though single readings can be large or run the other way. This is one part of the list.
# Experiment: qHTS of TDP-43 Inhibitors: NCGC Sytravon Library Screen; further: 0% is about no effect; nearly all actives have a fitted effect of over 55% in size
# Details: yeast TDP-43 toxicity rescue, BacTiter-Glo growth, 24 h; series mostly up to 46.1 µM; growth rescue (activation): at the top concentration
# Procedure, shortened: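 TDP-43-expressing yeast, pregrown in raffinose, seeded at OD600 0.02 in galactose medium with compound for 24 hr at 30 deg C. Growth read by BacTiter-Glo luminescence, so rescue of toxicity appears as activation.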
row,SMILES,growth rescue (activation)
1,COc1ccccc1C(=O)Nc1ccnn1C1CCN(C/C=C/c2ccccc2)CC1,inactive: 8.26%
2,C/C(=N\NC(=O)CNc1cccc(C(F)(F)F)c1)c1cccs1,inactive: 28.3%
3,Cc1cccc(CN2CCC(n3nccc3NC(=O)c3ccccc3C)CC2)n1,inactive: 17.4%
4,Cc1cc(NC(=O)CSc2nnc(C3CC3)n2N)c([N+](=O)[O-])cc1C,inactive: 15.1%
5,O=C(Nc1ccccc1)Nc1ccc(C(=O)N2CCCC2)cc1,inactive: -54.4%
6,Cc1cc2nc(/C(C#N)=C\c3ccc(-c4ccccc4C(=O)O)o3)[nH]c2cc1C,inactive: -7.84%
7,O=C(OCc1cc(=O)n2ccsc2n1)c1ccccc1NCCO,inactive: 11.6%
8,CC(=O)c1ccc(N2CCN(CC(O)COC(c3ccccc3)c3ccccc3C)CC2)cc1 (stereo unspecified),inactive: 1.06%
9,CCN(CC)c1ccc(C(=O)Nn2cnc3ccccc3c2=O)cc1,inactive: 16.6%
10,CC(=O)Nc1ccc(Nc2cc(C)nc3c(-c4ccccc4)c(C)nn23)cc1,inactive: 4.7%
11,CCN(CC)c1ccc(/C=N/OCC(=O)Nc2cccc(C)c2)cc1,inactive: 7.29%
12,O=S(=O)(c1ccc(NC(=S)N/N=C/c2ccc(Oc3ccccc3)cc2)cc1)N1CCOCC1,inactive: 6.47%
13,Nc1ncnc(Oc2ccccc2F)c1[N+](=O)[O-],inactive: 33%
14,O=C(O)c1ccc(NCCc2ccc(Cl)cc2)c([N+](=O)[O-])c1,inactive: 7.51%
15,CCOC(=O)Nc1ccc2c(c1)N(C(=O)CN1CCN(CCO)CC1)c1ccccc1CC2,inactive: 3.49%
16,CN1CCN(S(=O)(=O)c2cccc3nsnc23)CC1,inactive: 8.2%
17,CCC1CCCCN1CCNC(=O)CNS(=O)(=O)c1ccc2nc(C)sc2c1 (stereo unspecified),inactive: -24.9%
18,COc1ccccc1NS(=O)(=O)c1ccc2[nH]c(=S)oc2c1,inactive: -14.3%
19,O=C(N/N=C/c1c(O)ccc2ccccc12)c1cccnc1,inactive: -12.8%
20,Cc1cccc(N(CC(=O)NCCc2ccccc2)C(=O)c2csnn2)c1,inactive: 2.28%
21,COc1ccc(N2C(=O)C3C(c4ccc(OC)cc4O)NC(Cc4ccccc4)(C(=O)O)C3C2=O)cc1 (stereo unspecified),inactive: 3.84%
22,CC(=O)c1ccc(N2CCN(C(=O)c3ccc(S(=O)(=O)NCc4ccco4)cc3)CC2)cc1,inactive: -8.77%

row,SMILES,growth rescue (activation)
1,CC(C)COC(=O)N1CCCCC1c1cc(C(=O)NCc2ccc(F)cc2)no1 (stereo unspecified),inactive: 20.3%
2,O=S(=O)(Nc1ccc(Cl)cn1)c1ccc(F)cc1,inactive: 29.3%
3,COc1cccc(OCC(O)CN2CCC(CN3C(=O)c4cccc5cccc(c45)C3=O)CC2)c1 (stereo unspecified),inactive: -26.7%
4,CCCCc1nc(NCc2ccccc2)c(C#N)c2c1CCCC2,inactive: 8.78%
5,O=C(Nc1c(F)cccc1F)C1CCN(C(=O)c2cccs2)CC1,inactive: -9.13%
6,COc1cc(C(C(=O)NCC2CCCO2)N(C(=O)Cn2nnc3ccccc32)c2ccc(C(C)=O)cc2)ccc1O (stereo unspecified),inactive: 4.35%
7,O=[N+]([O-])c1ccc(OCc2cccc(COc3ccc([N+](=O)[O-])cc3)n2)cc1,inactive: 9.63%
8,CCCc1nnc2c(N(C)S(=O)(=O)c3ccccc3)nc3ccccc3n12,inactive: -1.04%
9,O=c1nc(N/N=C/C=C/c2ccccc2)cn[nH]1,inactive: 24.6%
10,CCc1ccccc1NC(=O)c1cc(-c2ccco2)on1,inactive: 33.5%
11,O=C(COC(=O)[C@H](Cc1ccccc1)NC(=O)c1cccs1)Nc1c(Cl)cccc1Cl,inactive: -0.356%
12,O=C(c1ccc2c(c1)N(Cc1ccccc1)C(=O)c1ccccc1S2(=O)=O)N1CCCCCC1,inactive: 24.7%
13,Cc1ccc2cc(CN(c3ccccc3)S(=O)(=O)c3ccccc3)c(=O)[nH]c2c1,inactive: 20.5%
14,CC(CNC(=O)CCc1nnc(CCC2CCCCC2)o1)c1ccccc1 (stereo unspecified),inactive: 11.8%
15,COc1ccc(S(=O)(=O)N2CCOCC2)cc1NC(=O)CSc1ncccn1,inactive: 14.5%
16,CCN(CC)c1ccc(/C=N/NC(=O)c2ccco2)cc1,inactive: -4.77%
17,NC(=O)C1CCN(C(=O)CCc2ccsc2)CC1,inactive: -13%
18,CCOC(=O)Cc1csc(NC(=O)COc2cccc(C)c2)n1,inactive: 25.7%
19,Cc1nn(C)cc1C(C(=O)NC1CCCCC1)N(C(=O)Cc1cccs1)c1ccc(F)cc1 (stereo unspecified),inactive: 15.4%
20,COc1ccc(OC)c(NC(=O)Nc2nc(CN)cs2)c1,inactive: 2.57%
21,Cc1ccc(N2C(=O)C3C(C2=O)N2C(c4cccs4)C4C(=O)N(c5ccc(C)cc5)C(=O)C4N2C3c2cccs2)cc1 (stereo unspecified),inactive: -14.2%
22,c1ccc(C2C/C(=N\N3CCOCC3)c3ccccc3O2)cc1 (stereo unspecified),inactive: 16.8%

row,SMILES,growth rescue (activation)
1,CC(=O)Nc1ccccc1-c1nc2ccccc2n(Cc2cccc(Br)c2)c1=O,inactive: 16.7%
2,CCCC(=O)Nc1ccc2c(c1)nc(CCN1CCCCC1)n2C,inactive: 11.9%
3,O=C(Nc1ccc(S(=O)(=O)N2CCCCC2)cc1)C1CC1,inactive: -1.5%
4,C=C(C)Cn1c(SCC(=O)O)nnc1-c1ccc(C(C)(C)C)cc1,inactive: 5.93%
5,COc1ccc(S(=O)(=O)N2CCc3ccccc3C2)cc1C(=O)O,inactive: -24%
6,CCC(=O)N(Cc1cc(=O)[nH]c2ccccc12)c1ccc(OC)cc1,inactive: 2.46%
7,NC(CCc1ccccc1)c1csc(Nc2cnccn2)n1 (stereo unspecified),inactive: 7.79%
8,Cc1ccc2c(c1)C1CN(C)CCC1N2C(=O)c1ccccc1NS(=O)(=O)c1cccc(C(F)(F)F)c1 (stereo unspecified),inactive: -21.2%
9,CCc1ccccc1NC(=S)N(Cc1ccc(OC)cc1)CC1CCC(C(=O)O)CC1 (stereo unspecified),inactive: -4.22%
10,COc1cc(OC)cc(C(=O)NCC(=O)OCC(=O)N2CCc3ccccc32)c1,inactive: -0.0791%
11,COc1ccccc1N1CCN(C(=O)CN2C(=O)C3CCCCC3C2=O)CC1 (stereo unspecified),inactive: -7.15%
12,CNC(=O)c1cc(C(=O)c2ccccc2C(F)(F)F)c[nH]1,inactive: 12.3%
13,Cc1nccc(-c2ccc(-n3c(C)ccc3C)cc2)n1,inactive: 23.4%
14,CCOC(=O)N1CCN(S(=O)(=O)N2CCCC(C(=O)NCc3ccc(OC)cc3)C2)CC1 (stereo unspecified),inactive: 6.8%
15,O=C(Nc1cccc(F)c1)C1CCCN(S(=O)(=O)c2ccc(-n3cnnn3)cc2)C1 (stereo unspecified),inactive: 5%
16,COc1ccccc1NC(=O)CSC1=NC(=O)C(Cc2ccccc2)C(=O)N1 (stereo unspecified),inactive: 3.86%
17,Cc1ccc(/C=C/C(=O)OC(C)C(=O)Nc2ncc(Cl)cc2Cl)o1 (stereo unspecified),inactive: -3.97%
18,COc1ccc2c(c1)c(CC(=O)Nc1cc(C)ccc1C)c(C)n2C(=O)c1ccc(Cl)cc1,inactive: 5.42%
19,Cc1cccc(OCC(=O)NN2C(=O)C3C4C=CC(O4)C3C2=O)c1 (stereo unspecified),inactive: 10.9%
20,C/C(=N\NC(=S)NC1CCCCC1)c1cccc(Br)c1,inactive: -6.1%
21,Cc1onc(-c2c(F)cccc2Cl)c1C(=O)Nc1cccc(S(=O)(=O)N2CCOCC2)c1,inactive: 2.7%
22,NC(=O)c1c(NC(=O)C2CCCO2)sc2c1CCCCC2 (stereo unspecified),inactive: 14.1%
